Values joined by “and” are separate entries in the source; they are usually repeats but may differ in a detail not shown here. Identical values can stand only once. Hit rate of the full screen: of about 270,000 compounds, about 5,800 (2.1%) were called active. Inconclusive results, whose numbers are uncertain, are shown with a selection of clear calls. Calls follow the shape of the dose curve; as a rule, active = well fitted inhibition curve with a large enough effect; inconclusive = small, poorly fitted or top-dose-only effect; inactive = flat fitted curve, though single readings scatter. Where the call is inconclusive, the potency comes from a doubtful curve fit.
Molecular target: Microtubule-associated protein tau (Homo sapiens) (UniProt P10636)
Sequence of UniProt P10636 (P10636 whole entry, looked up): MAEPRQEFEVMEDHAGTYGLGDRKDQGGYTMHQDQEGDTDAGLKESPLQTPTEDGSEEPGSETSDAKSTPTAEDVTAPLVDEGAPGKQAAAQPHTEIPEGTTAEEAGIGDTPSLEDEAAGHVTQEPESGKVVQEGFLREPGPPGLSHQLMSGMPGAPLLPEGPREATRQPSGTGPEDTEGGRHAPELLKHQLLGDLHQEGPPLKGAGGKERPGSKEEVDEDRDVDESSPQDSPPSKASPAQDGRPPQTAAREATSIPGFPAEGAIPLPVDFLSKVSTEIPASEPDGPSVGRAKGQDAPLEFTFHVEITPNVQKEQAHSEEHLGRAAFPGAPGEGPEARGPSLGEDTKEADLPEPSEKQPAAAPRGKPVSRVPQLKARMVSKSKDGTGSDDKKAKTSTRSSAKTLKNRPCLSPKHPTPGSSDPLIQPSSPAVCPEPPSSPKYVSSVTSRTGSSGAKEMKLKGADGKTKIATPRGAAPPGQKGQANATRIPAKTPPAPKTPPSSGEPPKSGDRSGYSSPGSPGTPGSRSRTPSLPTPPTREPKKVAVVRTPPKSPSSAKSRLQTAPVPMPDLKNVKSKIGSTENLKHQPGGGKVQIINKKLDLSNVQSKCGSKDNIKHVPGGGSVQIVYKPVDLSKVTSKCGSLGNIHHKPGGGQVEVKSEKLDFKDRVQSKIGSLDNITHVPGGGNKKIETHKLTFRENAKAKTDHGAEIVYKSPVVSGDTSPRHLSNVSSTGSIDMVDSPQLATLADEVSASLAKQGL
Test: qHTS for Inhibitors of Tau Fibril Formation, Thioflavin T Binding; also: nearly all actives have a fitted effect of over 55% in size
Conditions: recombinant tau K18 P301L (four-repeat tau fragment), heparin-induced fibrillization, ThT fluorescence; series mostly up to 57.4 µM
Summary of the method: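 Heparin-induced (20 uM) aggregation of recombinant human K18 P301L tau, 15 uM unlabeled with 0.24 uM labeled, pH 7 acetate buffer, 6 hr at 37 C with compound. Fibrils quantified by 30 uM ThT fluorescence after 1 hr ambient incubation.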
% is scaled to controls: 0 for no effect and ±100 for the full control effect; potency is read from the fitted curve at half-maximal effect; tags tell the direction and shape of the fitted curve.

Structure (SMILES) | Potency | activity, negative = inhibition
COc1ccc(C(=O)Oc2c(Sc3ccccc3)c(C)nn2-c2ccccc2)cc1OC | inconclusive: 17.8 µM [inhibitor, partial curve] | –
Cc1nn(C(=O)c2cccnc2)c(C)c1Sc1ccc(Br)cc1 | inconclusive: 31.6 µM [inhibitor, single point] | –
O=C(CCl)N(Cc1cccc([N+](=O)[O-])c1)c1cccc(Cl)c1 | inconclusive: 17.8 µM [inhibitor, single point] | –
CCOCCCn1c(=S)[nH]c2cc(C(=O)NCCOC)ccc2c1=O | inactive | –
CCOC(=O)CC(=O)CSc1ncnc2c1oc1ccccc12 | inconclusive: 2.82 µM [inhibitor, partial curve, poor fit] | –
CCCCc1nc(NCCNC(=O)c2ccco2)c(C#N)c2c1CSC(C)(C)C2 | inconclusive: 31.6 µM [inhibitor, single point] | –
CCc1ccc(/C=N/NC(=O)c2cc(-c3ccncc3)nc3ccccc23)s1 | inconclusive: 39.8 µM [inhibitor, single point] | –
CCCOCC(O)CC(CC)C(=O)NNC(=S)Nc1ccccc1 (stereo unspecified) | inconclusive: 12.6 µM [inhibitor, partial curve, poor fit] | –
Cc1ccccc1NC(=O)CN1C(=O)S/C(=C\c2cccn2-c2cccc(C(=O)O)c2)C1=O | inconclusive: 20 µM [inhibitor, partial curve, poor fit] | –
O=C(NCC(c1cccnc1)N1CCOCC1)C(=O)Nc1ccc(F)cc1 (stereo unspecified) | inconclusive: 35.5 µM [inhibitor, single point] | –
CCCN1C=CC(=CC=C(C#N)C#N)C=C1 | inconclusive: 39.8 µM [inhibitor, single point] | –
CCOC(=O)c1c(/N=C/c2cccc([N+](=O)[O-])c2O)sc2c1CCC2 | active: 15.8 µM | –
COc1ccc(OC)c(CCNc2nccn(-c3ccc(C)c(C)c3)c2=O)c1 | inconclusive: 15.8 µM [inhibitor, partial curve] | –
O=C(C1=NN[C@@H]2C(=O)N(c3cccc(C(F)(F)F)c3)C(=O)[C@H]12)c1cnccn1 | inactive | –
O=C(N/N=C/C=C/c1ccccc1)c1ccncc1 | inactive | –
CCCOc1ccc(Nc2cc(C)nc(C)n2)cc1 | inconclusive: 11.2 µM [inhibitor, partial curve] | –
O=C(Cn1c(=O)n(-c2ccc(F)cc2)c(=O)c2sc3ccccc3c21)NC1CCCCC1 | inactive | –
CCOC(=O)c1ccc2c(c1)N(Cc1cccc(C(F)(F)F)c1)C(=O)c1ccccc1S2(=O)=O | inactive | –
CCCCNc1ccc2c3c(cccc13)C(=O)N(CCCC)C2=O | inconclusive: 3.55 µM [activator, single point] | –
COC(=O)C1=C(C)N=C2SCCC(=O)N2C1c1cc(Br)ccc1OC (stereo unspecified) | active: 5.01 µM | –
O=C(NN=C(Cc1ccccc1)Cc1ccccc1)c1ccncc1 | inconclusive: 2.24 µM [inhibitor, partial curve, poor fit] | –
O=C(CCc1nc2ccccc2c(=O)[nH]1)OCCOc1ccc(Cl)cc1 | inconclusive: 22.4 µM [inhibitor, single point] | –
CCCCSc1nnc2c(n1)OC(C(=O)c1ccccc1)Nc1ccccc1-2 (stereo unspecified) | active: 31.6 µM | –
Cc1oc(-c2ccc(F)cc2)cc1-c1nn2c(-c3ccoc3C)nnc2s1 | inconclusive: 15.8 µM [inhibitor, partial curve] | –

Structure (SMILES) | Potency | activity, negative = inhibition
O=C(O/N=C1/CCSc2ccccc21)c1ccc(F)cc1 | inconclusive: 15.8 µM [inhibitor, partial curve] | –
CCn1c(SCc2nc(-c3ccccc3)no2)nc2ccccc21 | inconclusive: 35.5 µM [inhibitor, partial curve] | –
Cc1ccccc1OCc1n(CC(=O)OC2CC(C)CCC2C(C)C)c2ccccc2[n+]1C (stereo unspecified) | inconclusive: 25.1 µM [inhibitor, single point] and inconclusive: 28.2 µM [inhibitor, single point] | –
CCOc1ccc(N2C(=O)C(c3ccccc3)=C(c3nc4ccccc4s3)C2NC(C)=O)cc1 (stereo unspecified) | inconclusive: 15.8 µM [inhibitor, partial curve] | –
COc1cc(C(=O)Nc2nc(C)c(Cc3ccc4c(c3)OCO4)s2)cc(OC)c1OC | inactive | –
COc1ccc(-c2coc3c2c(C)cc2oc(=O)c(C)c(C)c23)cc1 | inconclusive: 7.08 µM [inhibitor, partial curve] | –
CC(=O)N(CCC(Cc1ccccc1)c1ccc2c(c1)OCO2)Cc1ccccc1F (stereo unspecified) | inconclusive: 39.8 µM [inhibitor, partial curve, poor fit] | –
CC(C)(C)c1nnc2cccc(Cl)n12 | inactive | –
O=C(Nc1ccc2ccccc2c1)c1ccc(Cl)cc1Cl | inconclusive: 44.7 µM [inhibitor, single point] | –
O=C(c1coc(=O)c(Br)c1)N1CCCc2ccccc21 | inconclusive: 35.5 µM [inhibitor, single point] | –
O=C(N/N=C/c1ccccc1Cl)c1nc2ccc([N+](=O)[O-])cc2c(=O)[nH]1 | active: 10 µM | –
O=C1CC(Nc2ccc(N3CCOCC3)cc2)C(=O)N1C1CCCCC1 (stereo unspecified) | inconclusive: 15.8 µM [inhibitor, partial curve] | –
COc1ccc(C(=O)c2ccc(Cl)cc2)c2ccccc12 | inconclusive: 12.6 µM [inhibitor, partial curve] | –
Cc1nc(NC(=O)c2ccco2)sc1C(=O)Nc1ccc(Br)cc1 | inconclusive: 17.8 µM [inhibitor, partial curve, poor fit] | –
Cc1ccc(-c2nc3c(c(=O)[nH]c(=O)n3Cc3ccccc3)n2Cc2ccccc2)o1 | inconclusive: 25.1 µM [inhibitor, partial curve] | –
Cc1cccc(NNC(N)=S)c1 | inconclusive: 6.31 µM [inhibitor, single point] | –
Cc1cccc(N2CCN(C(=O)c3cc4n(n3)C(C(F)(F)F)CC(c3ccco3)N4)CC2)c1C (stereo unspecified) | inconclusive: 39.8 µM [inhibitor, single point] | –
NS(=O)(=O)c1ccc(CCNC(=O)c2cccnc2)cc1 | inactive | –
CCC(=O)N1C2=C(c3ccccc3[C@@H]1CC(=O)Nc1ccc3ccccc3c1)[C@@H]1C(=O)N(c3ccccc3)C(=O)[C@@H]1[C@H](C)C2 | – | inactive: -8.55% [at 11.5 µM]
COCCCNC(=O)c1c(N)n(-c2ccc3c(c2)OCO3)c2nc3ccccc3nc12 | inactive | –
CC(C)(C)c1nc(SCC(=O)c2ccccc2)c2ccccc2n1 | inconclusive: 25.1 µM [inhibitor, partial curve] | –
CC(C)(O)c1cc(=O)sc2nc3ccccc3n12 | inactive | –
CCCCNC(=O)c1cc2c(=O)n3cccc(C)c3nc2s1 | inconclusive: 2.24 µM [inhibitor, partial curve] | –
Cc1ccc(OC(=O)c2ccc(N3CCOCC3)c([N+](=O)[O-])c2)cc1 | active: 10 µM | –

Structure (SMILES) | Potency | activity, negative = inhibition
CC(C)(C)c1cc(C(=O)O)n[nH]1 | inactive | –
COc1cc(Cl)c(C)cc1NC(=O)CN(C)Cc1cccc(OC)c1OC | inconclusive: 28.2 µM [inhibitor, single point] | –
Cc1cccc(OCC(=O)Nc2ccc3nc(Nc4cccc(C(F)(F)F)c4)cc(C)c3c2)c1 | inactive | –
Cc1cc(C(=O)CN2C(=O)NC3(CCCCC3)C2=O)c(C)n1-c1ccc2c(c1)OCO2 | inconclusive: 31.6 µM [inhibitor, single point] | –
NNC(=S)Nc1c(Br)cc(F)cc1Br | inactive | –
O=C(/C=C/c1ccc[nH]1)c1ccccc1 | inconclusive: 39.8 µM [inhibitor, single point] | –
CCn1c(SCC(=O)c2ccc(O)c(O)c2)nnc1-c1ccc(C)cc1 | inconclusive: 25.1 µM [inhibitor, partial curve] | –
NC(=S)N/N=C1\CCOc2ccc(Cl)cc21 | inactive | –
O[C@@H](CNC[C@H](O)c1ccccc1)c1ccccc1 | inactive | –
Cc1nc2c(o1)CCc1ccccc1C2N1CCN(C)CC1 (stereo unspecified) | inactive | –
O=c1oc2ccccc2c(NCCO)c1[N+](=O)[O-] | inactive | –
COc1cc(/C=C2/C(=O)N=C(N)N2C)cc(OC)c1OC | inactive | –
CCCCc1ccc(NC(=O)COCC)cc1 | inactive | –
COc1ccc(C(=O)O/N=C(\C)c2nccs2)cc1 | inactive | –
CCOC(=O)C1=C(C)NC(=S)NC1c1cc(C)sc1C (stereo unspecified) | inactive | –
CC(C)(C)Nc1c([N+](=O)[O-])c(=O)sc2ccccc12 | inconclusive: 35.5 µM [inhibitor, single point] | –
O=C(O)c1ccccc1-c1ccccc1C(=O)Nc1ccc(-c2nc3cc(Cl)ccc3o2)cc1 | inconclusive: 31.6 µM [activator, single point] | –
CCOc1ccc2nc(NC(=O)C3=NN(c4ccccc4)C(=O)CC3)sc2c1 | inconclusive: 10 µM [inhibitor, partial curve] | –
CCn1nc(NC(=O)c2ccccc2)c2cc3cccc(C)c3nc21 | inconclusive: 22.4 µM [inhibitor, partial curve] | –
COc1ccccc1OCCNc1cc(N2CCCCC2)ccc1[N+](=O)[O-] | inconclusive: 7.08 µM [inhibitor, partial curve] | –
COc1ccc2[nH]c3c(=O)n(CCCCC(=O)NCCN4CCCC4)c(=S)[nH]c3c2c1 | inconclusive: 17.8 µM [inhibitor, partial curve] | –
COc1ccc2c(c1)CCC/C2=N\OC(=O)c1ccccc1F | inconclusive: 39.8 µM [inhibitor, single point] | –
O=C(NCc1ccco1)c1csc2c1CCCCC2 | inactive | –

From PubChem BioAssay AID1460 (National Center for Advancing Translational Sciences (NCATS), 2008)
